Assay results taken from PubChem BioAssay AID493208 (National Center for Advancing Translational Sciences (NCATS), 2011).
Among all 44,000 compounds or so, about 340 (0.77%) were called active. Not shown: some 5% with an inconclusive outcome. The call rests on the fitted dose curve; in most records, active means well fitted inhibition curve with a large enough effect; inconclusive means small, poorly fitted or top-dose-only effect; inactive means flat fitted curve, though single readings scatter. The list shows a part of the results.

Assay: Acumen qHTS Assay for Inhibitors of the mTORC1 Signaling Pathway in MEF (Tsc2-/-, p53-/-) Cells: Sytravon; further: nearly all actives have a fitted effect of over 50% in size;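 on activity change, negative = inhibition: plate controls were DMSO for no effect and rapamycin for full effect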
Conditions: phospho-rpS6 immunofluorescence/PI, 24 h; series mostly up to 38.3 µM; activity change, negative = inhibition: at the top concentration
In short: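 Read-out: phospho-S6 Alexa-488 intensity over PI intensity per well, scored as % active cells using thresholds from rapamycin (7.5 nM) and DMSO controls. Tsc2-/-, p53-/- MEFs exposed to compound for 24 h; PI cell count recorded as viability.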
Potency means the concentration at half of the fitted maximal effect.

Row | Structure (SMILES) | activity change, negative = inhibition | Potency
1 | CCC(C)c1ccc(OCC(=O)Nc2cccc(-c3nc4ncccc4o3)c2)cc1 (stereo not given) | inactive: -20.6% | –
2 | CCOc1ccc(NC(=O)c2oc3ccccc3c2NC(=O)Cc2ccc(F)cc2)cc1 | inactive: -10.1% | –
3 | Cc1ccc(S(=O)(=O)N(CC(=O)Nc2ccc(C(C)C)cc2)Cc2ccccc2)cc1 | inactive: 4.73% | –
4 | CC(=O)N1c2ccc(S(=O)(=O)NCC3CCC(C(=O)NC(C)(C)C)CC3)cc2CC1C (stereo not given) | inactive: -3.89% | –
5 | Cc1ccccc1NC(=O)CCC(=O)N1CCSc2ccccc21 | inactive: -0.283% | –
6 | O=C(NCC(c1cccs1)S(=O)(=O)c1cccs1)c1ccccc1F (stereo not given) | inactive: 1.83% | –
7 | Clc1ccccc1N1CCN(c2ncnc3c2c(-c2ccccc2)cn3-c2ccccc2)CC1 | inactive: 5.98% | –
8 | CCN(CC)c1nn2c(=O)c(C(=O)NCc3ccc(OC)cc3OC)cnc2s1 | inactive: 1.43% | –
9 | Cc1ccc(-n2nc3ccc(NC(=O)c4oc5ccccc5c4C)cc3n2)cc1 | inactive: 0.544% | –
10 | O=C(Nc1ccc2c(c1)CCCN2C(=O)c1cccs1)c1cccc(C(F)(F)F)c1 | inactive: 1.21% | –
11 | CCN(C(=O)c1noc2c1COc1ccc(C)cc1-2)c1cccc(C)c1 | inactive: 6.76% | –
12 | Cc1cccc(N2CCN(C(=O)c3cc(S(=O)(=O)N4CCC(C)CC4)cn3C)CC2)c1C | inactive: -5.56% | –
13 | CC(C)(C)OC(=O)N1CCC(c2c(C(=O)NCCN3CCC(Cc4ccccc4)CC3)cnn2-c2cccc(Cl)c2)CC1 | – | active: 14.7 µM
14 | O=C(NCc1ccc(Cl)cc1)C(=O)NCC(c1cccs1)S(=O)(=O)c1ccc(Cl)cc1 (stereo not given) | inactive: -8.64% | –
15 | O=C(NCCCN1CCN(c2ccccc2)CC1)c1nnc(Cc2c(F)cccc2Cl)o1 | inactive: -5.23% | –
16 | CCOc1ccc(CCNC(=O)C2CCN(c3ncnc4c3nc3n4CCCCC3)CC2)cc1 | inactive: 0.071% | –
17 | Cc1cccc(C)c1NC(=O)Cn1nnc(S(=O)(=O)c2ccccc2)c1N | inactive: -9.68% | –
18 | O=C1CN(C(=O)c2ccc(S(=O)(=O)N3CCCC3)cc2)C(c2ccccc2)c2cc(F)ccc2N1 (stereo not given) | inactive: 3.02% | –
19 | Cc1ccccc1-c1noc(-c2ccccc2OCC(=O)Nc2cccc([N+](=O)[O-])c2)n1 | inactive: -1.94% | –
20 | N#Cc1c(-c2ccccc2)cc(-c2ccccc2)nc1SCC(O)CS(=O)(=O)Cc1ccc(Cl)cc1 (stereo not given) | inactive: 3.5% | –
21 | CCn1cc(/C=C(\NC(=O)c2cc(OC)c(OC)c(OC)c2)C(=O)NCCCn2ccnc2)c2ccccc21 | inactive: -2.8% | –
22 | Cc1cc(NC(=O)Cc2ccccc2)cc(-c2nc3ccccc3o2)c1O | inactive: 4.84% | –
23 | CCOC(=O)c1cc2c(=O)n3ccccc3nc2n(C(C)C)c1=NC(=O)C(C)(C)Oc1ccc(Cl)cc1 | inactive: 2.63% | –
24 | Cc1c(C(=O)NCCN(C)C)oc2c1-c1nn(Cc3cccc(Cl)c3)cc1CC2 | inactive: -1.51% | –
25 | Cc1nc(-c2ccc(F)cc2)sc1CCNC(=O)Cc1ccc(F)cc1 | inactive: 10.3% | –
